The supplement of paper PMC11417369
The other results are listed elsewhere or left out.

What follows are sequences tested on PfHDP1 homeodomain (GST-tagged) (assay: gcPBM binding intensity (ln(normalized median fluorescence intensity)); higher = stronger DNA binding).
Procedure, shortened: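 Probes on an Agilent 4 × 180k array were primer-extended, double-stranded and 36 bp long, taken from intergenic genomic regions, with negative controls added. GST-tagged P. falciparum DNA-binding domains from E. coli, about 25 μg on average, were applied to the array for 1 h in 1× PBS containing 1% milk, 0.2 mg/ml BSA, 0.5% salmon testes DNA and 0.03% Triton X-100. Binding intensity, obtained after Alexa488 anti-GST antibody detection and a 488 nm scan, is the highest Masliner-normalised natural-log median intensity across replicate spots of either probe orientation.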

Sequence | gcPBM binding intensity (ln)
ATTAAATATATTAAATGTACATAATATATATATATA [XGTACX_site5032] | 8.75
TTTATTTGATGAACATGTACAAAAAAACAAAGAACA [XGTACX_site823] | 6.7
TCAAACCAGTTGATGTGTACACATATAGTAATAATT [XGTACX_site6014] | 7.25
CATACACCCCAACACACACACACACCCATATATAAT [CACACA_site8097] | 7.24
AAAAAAAAAAAAAAAAGTACATATATTATATATATA [XGTACX_site2983] | 7.66
TGAAAAAAGAAAAATACACACATATAATATAATATA [CACACA_site2255] | 6.58
TTATATAAGATATTTCGTACACATTCAAAAATTATG [XGTACX_site7375] | 6.36
AATAAAATATAAGGGGGTACGGAGAAAGGATACTAT [XGTACX_site7733] | 6.91
ATATATATTATTGAATGTACATAATTATTTAATAGT [XGTACX_site4971] | 6.95
ATATATTCACGTTAATGTACACATAATAAATTATAT [XGTACX_site5481] | 6.72
GTATTTAGATGATTAACACACATATGTGTATTAATA [CACACA_site6733] | 6.88
TATTCACTGATATGTTGTACATAAAAAAAATTAAAT [XGTACX_site6128] | 6.58
AATTATATTGGTTGTAGTACTAAAAGTAAGTTAATG [XGTACX_site33] | 6.49
CACGCACGCACATACACACACATACACATATAAATA [CACACA_site6907] | 8.84
ATATTTAAAAATATAGTGCAATTATTCTAATGTGTT | 8.89
ATATTTCATTAATGAACACACAAAGAGGTATATAAA [CACACA_site1519] | 6.86
AGCTCTCAAAATTATTCACACGTGTCCTGTTATATA [CACACA_site5415] | 7.13
AAATAAAAGGTTGAGAGTACATTTTTGTGTATGTAT [XGTACX_site5547] | 6.49
ATATATTATTTTAAATGTACTCATAATAGAAATGTC [XGTACX_site40] | 6.15
ATATAAAGAAAAGGAACACACAAATATATATATATA [CACACA_site463] | 9.12
CACACAGGTAAAAAGGTGCAGTTGAAATATTCCTCA [GTGCAC_site9730] | 6.65
TGTTTATTTAATAATATTTTTTTTTTTATTATATTA [XGTACX_negctrl_site56] | 6.2
AGGTGATTGATATATACACACATACCTATATTTATA [CACACA_site7348] | 6.56

Sequence | gcPBM binding intensity (ln)
TTATTAAAATATTCTAGTACATATAAAAGGAGAACA [XGTACX_site4374] | 6.81
GAAATAAATATATATGCATGTACTTTAATATTATTA [TGCATGCA_site904] | 6.3
TAAATATATTCATAAAGTACAAAGCAAAATTGTCTA [XGTACX_site7274] | 6.48
GTGCTTATTTATACATGTACAAATGATAAGTTTGTA [XGTACX_site169] | 6.88
TTATTATCTCTTGTCATTATTATATACTAAGAAGTA [CACACA_negctrl_site410] | 6.35
AATATGAAATATATTACACACATTTATATGTTGAAA [CACACA_site1427] | 6.31
ATTACATTTTTAATGCGTACTAAAAATGTATATAAG [XGTACX_site6384] | 6.6
AGAATTACTTAAAAAAGTACATAAAATTATTTAAAA [XGTACX_site2205] | 5.96
AATATAAAAATGTTTACACACACACCCAAATATATT [CACACA_site2511] | 6.92
AATACACCCAGACACACACACAAAAAAAAAAAAAAA [CACACA_site513] | 6.45
ATATATATATTAAATACACACATTTTTGATTAGGTT [CACACA_site3119] | 8.19
TTTGAATCCTTATATACACACATTATGTAATATTAT [CACACA_site561] | 6.83
AAAAGAGAAATGGGCACACACACACCGATTATATAT [CACACA_site4942] | 6.78
TCTAATTATCACATTGCACACACATTTCCTTTTACA [CACACA_site9140] | 9.66
TTATACTGTATAGTCGCACACAAAAATATAAAATAT [CACACA_site3869] | 6.75
TAATTAATTTATGTAACACACATTGTTGATTCAATA [CACACA_site1098] | 6.53
AAAAGTCTCTTTTTAGTGCACATTTTATTTAAATAT | 9.6
CAGATAAGGTGAAGCTGTACAAAAATGTTTTATAAC [XGTACX_site6783] | 6.53
AAAGATTTAGAAAATGAACACACGAGCACCCACCGA [CACACA_site1017] | 7.27
GAAAGAGAGATATATACACACATATTTATATTTTTA [CACACA_site7057] | 6.53
ATTTTAATAAACACTTACATGTTTTCCAAATTGTAT [CACACA_negctrl_site1807] | 6.31
TTCGTTAAAAATAAATGTACATAAATAAACCTTATT [XGTACX_site621] | 6.25
ATATTAAGAATGTATACATGCATATATATATAGTAC [TGCATGCA_site219] | 7.01

Sequence | gcPBM binding intensity (ln)
TATTAATAAATATGTTTACACACGAAAATACATTTT [CACACA_site1012] | 6.35
ATTTTCATATTTTTATGTACATATTATAAGAATATA [XGTACX_site3691] | 6.42
TATCTTTTTTTTAATACACACAAATTTATGAAAGTA [CACACA_site7879] | 6.75
ATGGAATATTTCATGATTTTTTTAATTTTTTTATTG [XGTACX_negctrl_site55] | 5.66
TGTCTTTATATATATTTATTTTTTAGTATTACATAA [CACACA_negctrl_site21] | 6.71
GTGGTTATATATTAAGTGCATATTATAATTTTAAAC | 9.28
AATATCTAAAATGTGTGTACATAATATTTTTAATAT [XGTACX_site3831] | 6.22
ATAGATAAAAAATTATTTATTTAGAATTTTTATGTA [CACACA_negctrl_site400] | 6.04
TGTATAAATAAATGCGTACACACTAATAAAAAAAAA [CACACA_site858] | 6.65
AAAAAAAATATGATGAGTACACAATAATACATGCAA [XGTACX_site6999] | 7.1
TTATGTAAATAATTTTGTACTTAAATTATTATATAA [XGTACX_site1491] | 6.1
CAACTTTTTGAAAATTGTACATGACATATATATATA [XGTACX_site260] | 8.94
AAGAAAATATAAATATGTACTTAATAATTTATTTAT [XGTACX_site8100] | 5.91
AAAAAAGAGGGATACACACAAACATATATATATATA [CACACA_site2243] | 9.28
ACAAAACATATATTCTGTACATATATAATGGTGACT [XGTACX_site6796] | 6.33
TTTATATCTTATTATAGGAAAATGAATATTTTCTCT [TGCATGCA_negctrl_site478] | 6.22
TATATTAATTAACAGTGTACAAAAAAAAATAAAAAA [XGTACX_site3702] | 6.84
TTTATTTTAAAATTTACACACAAAAGGATTTATAGA [CACACA_site2338] | 6.28
AAAATAAAAAGAAATTGTACGTATAATAATATATTT [XGTACX_site7593] | 6.68
AGGATACACGGACACACACACATATATATATATATA [CACACA_site4654] | 9.44
TATTAAAATAACATACGTACATAAGTATATAAAAAA [XGTACX_site1769] | 6.42
TTTATTCCAGTATTCACACACGAATAACCACATAAC [CACACA_site5104] | 6.51
TATATAAGAGGAAAAAGTACAGAAAAACAAAGAGAA [XGTACX_site2926] | 6.72

Sequence | gcPBM binding intensity (ln)
TGTATTTATAGCAATACACACATAACAATAAATATA [CACACA_site3328] | 6.6
ATAATTCTTTATTATAGTACACAAACTTTCAAAACA [XGTACX_site3597] | 6.33
CTATACATATTATATAGTACTTTATTATTATGACTA [XGTACX_site1382] | 6.57
CACTTTTCATATATGACACACAAAAAATTAATAAAA [CACACA_site3639] | 6.61
AGCACACCCACAAAAACACACACAAAGGTGTTCTTA [CACACA_site8355] | 6.46
TCATTATTATTCCTCACACATATATATATATATATT [CACACA_site4375] | 7.16
GCATGTATAATGGTAGTGCATATAATAATATAATAA [GTGCAC_site9548] | 9.4
TAATAATAAAAATAAACACACATATAGATGTATATA [CACACA_site7360] | 6.12
ATTTTGTTCGAAAGGTGTACATATACAAAAATTATG [XGTACX_site957] | 6.83
ATTGCTTTTCTTTTTGCACACTTATGCATATATATA [CACACA_site2584] | 10.4
TAAAATAATACAAAATGTACAAAATTTACAAAATGT [XGTACX_site3541] | 6.05
AATATAGAACAATGTTGTACATATAATAATCTTATA [XGTACX_site4671] | 6.14
ATGTAAATTAAACATGGTACACATTATACAAAATTA [XGTACX_site5675] | 6.56
AATATTAAAAACAAAACACACAAAAAAAAATAAACT [CACACA_site6470] | 6.97
ATTAACACTGAAAAATGTACATATATAAATATAAGC [XGTACX_site8222] | 6.19
AACGATATCTGTACTACACACATTATGTCATCCTAT [CACACA_site5374] | 6.81
ATATAAGTATTTTGAATGCACTTTCTTTTTTTTTTT | 7.52
TTATAAAATAATTAATGTACGTTTATGTGTATCGAA [XGTACX_site6117] | 6.63
ACTGAAAAAAGAAATACACACATTCTGGATCATATA [CACACA_site3860] | 6.47
ATATATATGAAAATATGTACATATATATATATATAA [XGTACX_site7550] | 6.8
TTTATGGGTATGTTTACACACATAAAAAAATATATG [CACACA_site5646] | 6.26
